According to PubChem BioAssay AID504706 (National Center for Advancing Translational Sciences (NCATS), 2011):
In all, about 320,000 compounds went through this assay and about 200 (0.062%) were called active. This list was built around the results that the source calls inconclusive (neither active nor inactive); the mix of calls is not that of the screen. Calls come from the whole dose curve; as a rule, active = well fitted activation curve with a large enough effect; inconclusive = small, poorly fitted or top-dose-only effect; inactive = no such curve, though single readings can be large or run the other way. Potencies of inconclusive entries are left out as doubtful fits.

assay: qHTS assay for re-activators of p53 using a Luc reporter; conditions: H1299 p53-A138V BP100-luciferase reporter, luminescence, 24 h; series mostly up to 92.2 µM; activity change, positive = activation: at the top concentration; note: nearly all actives have a fitted effect of over 45% in size; for activity change, positive = activation: % of control where 0% means no effect
Description: The p53 tumor suppressor plays a key role in suppression of tumorigenesis and in human carcinogenesis. It is frequently found inactivated in human cancers, mainly by point mutation. These point mutations are found in a wide variety of human cancers and a majority of them affect the DNA binding domain of the protein. The point mutations either alter native p53 conformation or abolish DNA contact. Additionally, cancer cells with p53 mutations are more resistant to chemo-radiation therapies. In order to find activators to reactivate this important protein, a cell-based screen for p53-dependent luciferase-reporter expression was developed. A p53-null H1299 lung cancer cell line was stably co-transfected with a temperature sensitive p53 mutant, p53-A138V, and a p53-responsive BP100-luciferase reporter. This cell model has previously been characterized in a gene chip profiling experiment for p53 activation. By lowering the culture temperature from 37 deg C (mutant p53 conformation) to 32 deg C (w.t. p53 conformation), a 30-60 fold increase in activation of luciferase activity is observed. At assay temperate, 37 deg C, basal reporter expression is very low and after the addition of detection reagent, a luminescent read-out is carried out. NIH Chemical Genomics Center [NCGC] NIH Molecular Libraries Probe Production Centers Network [MLPCN] MLPCN Grant: DA031088-01A1 Assay Provider (PI): Yi Sung, University of Michigan at Ann Arbor
5ul of 1000 cells per well are dispensed in all wells except column 4, into white solid-bottom TC-treated Kalypsys plates. The cells are kept in Opti-MEM and supplemented with 10% FBS and dispensed using a Multidrop (Thermo). Then using the Kalypsys pin-tool, 23nl of compounds are pinned. The compounds are starting concentration at 10mM, with 1:5 dilution, 4 points, and the control compound nocodazole is pinned in column 1 at 25mM, 1:3 dilution, in duplicate, 25mM nocodazole is pinned in column 2. Please note, all concentrations are working concentrations. 5ul of 1pM purified luciferase enzyme is dispensed using the Kalypsys dispenser in column 4. Plates are incubated for 24 hrs at 37 deg C, 5% CO2, and 95% humidity. Then 4ul of the detection reagent Amplite (ABD Bioquest) is added using the Kalypsys dispenser. Plates are incubated for 10 min at ambient room temperature and are then read on the ViewLux (Perkin Elmer) using a clear filter for a luminescent read-out.
Potency is the fitted concentration of half-maximal effect; tags give direction and shape of the fitted curve.

Row | Compound | activity change, positive = activation | Potency
1 | O=C(NCCN1CCOCC1)Nc1ccc(Cl)cc1Cl | inactive: 1.27% | –
2 | CCOc1ccc(NC(=O)CNC(=O)c2nn(-c3ccc(OC)c(OC)c3)c(=O)c3ccccc23)cc1 | inactive: -3.62% | –
3 | COc1ccc(-c2nc(-c3cccc(C)c3)no2)cc1OC | – | inconclusive [activator, partial curve, poor fit]
4 | Clc1cccc(-c2nc3nc4ccccc4nc3n2Cc2ccco2)c1 | – | inconclusive [activator, partial curve, poor fit]
5 | CC(=O)Nc1ccc(OCC(O)Cn2c(C(C)C)nc3ccccc32)cc1 (stereo not given) | inactive: -3.47% | –
6 | NS(=O)(=O)c1ccc(CCNC(=O)c2cc(-c3ccc(Br)cc3)nc3ccccc23)cc1 | inactive: -5.76% | –
7 | O=C(c1ccc(F)cc1)c1ccc(N2CCCCC2)cc1 | – | inconclusive [activator, full curve, poor fit]
8 | COc1cc(C(=O)Oc2c(CN3CCOCC3)cc(Cl)c3cccnc23)cc(OC)c1OC | inactive: 1.01% | –
9 | N#CC(c1ccc(Cl)cc1)c1ccc2c(C(F)(F)F)cc(C(F)(F)F)nc2n1 (stereo not given) | inactive: -0.0148% | –
10 | COc1ccc(Cn2c(=O)[nH]c3cc(OC)c(OC)cc3c2=O)cc1 | inactive: -0.867% | –
11 | COc1ccc(-c2nnc(SCC(=O)c3ccc[nH]3)o2)cc1 | – | inconclusive [activator, partial curve, poor fit]
12 | CC(C)c1ccc(NC(=O)N2CCOCC2)cc1 | – | inconclusive [activator, full curve, poor fit]
13 | CC(NC(=O)C(C)N1C(=O)c2cccc([N+](=O)[O-])c2C1=O)c1ccccc1 (stereo not given) | – | inconclusive [activator, partial curve, poor fit]
14 | O=C(COC(=O)CSc1ccc(F)cc1)NCC1CCCCC1 | – | inconclusive [activator, single point]
15 | COc1ccc(C(=O)c2c3ccc([N+](=O)[O-])cc3[n+]([O-])n2CCCN)cc1 | – | inconclusive [activator, single point]
16 | CC1CCC2(CC1)NC(=O)N(NC(=O)c1ccc(OC(C)C)cc1)C2=O (stereo not given) | inactive: 1.12% | –
17 | CN(/N=C/C=C/c1ccccc1)c1cc(=O)n(C)c(=O)[nH]1 | inactive: 2.58% | –
18 | CN1CCN(C(c2ccc(C(F)(F)F)cc2)c2ccc3cccnc3c2O)CC1 (stereo not given) | – | inconclusive [activator, single point]
19 | COc1ccc(C(=O)/C=C/c2ccccc2)c(OC)c1 | – | inconclusive [activator, partial curve, poor fit]
20 | COCCNC(=O)Cn1cc2c(n1)CCCCC2 | – | inconclusive [activator, single point]
21 | Cc1ccc(Cc2cnc(NC(=O)C3CCCO3)s2)cc1 (stereo not given) | – | inconclusive [activator, partial curve, poor fit]
22 | Cc1cccc(C(=O)Nc2cc(OCc3cccc(F)c3)c(Cl)cc2Cl)c1 | inactive: 11.9% | –
23 | N#C/C(=N/Nc1ccc([N+](=O)[O-])cc1)C(=N)N1CCCCC1 | – | inconclusive [activator, partial curve, poor fit]
24 | N=c1cc(C2(O)CCCCC2)n2c(nc3ccccc32)s1 | – | inconclusive [activator, full curve, poor fit]

Row | Compound | activity change, positive = activation | Potency
25 | Cc1ccn(-c2ccc(NC(=O)c3cccs3)cc2)n1 | – | inconclusive [activator, partial curve, poor fit]
26 | CCOC(=O)c1c(C)oc2c1c(C(c1ccncc1)N1CCOCC1)c(O)c1ccccc12 (stereo not given) | – | inconclusive [activator, partial curve, poor fit]
27 | O=S1(=O)c2ccccc2OC(COCc2ccccc2)CN1Cc1ccccc1 (stereo not given) | inactive: 10.2% | –
28 | Cc1c(C(=O)Nc2ccc(Cl)cc2)c2ccccn2c1CCc1ccncc1 | – | inconclusive [activator, full curve, poor fit]
29 | Nc1nc(Nc2ccccc2F)sc1C(=O)c1ccccc1 | – | inconclusive [activator, partial curve, poor fit]
30 | Cc1ccc2[nH]c(-c3ccccc3)cc(=O)c2c1 | – | inconclusive [activator, partial curve, poor fit]
31 | CCC(=O)N1CCN(c2ccccc2NC(=O)c2ccc([N+](=O)[O-])o2)CC1 | – | inconclusive [activator, partial curve, poor fit]
32 | COc1ccccc1/C=C/C(=O)OCCN1CCOCC1 | – | inconclusive [activator, single point]
33 | CC1CCCCN1C(=O)CSc1nnc(-c2ccco2)n1CC1CCCO1 (stereo not given) | inactive: -1.85% | –
34 | COc1ccc(OCCC(=O)OCC(=O)NC(=O)NC(C)(C)C)cc1 | inactive: -0.601% | –
35 | Cc1ccn2c(NC3CCCC3)c(-c3ccsc3)nc2c1 | inactive: 8.82% | –
36 | CCOC(=O)N1CCN(S(=O)(=O)c2ccc(C(=O)N(CCN(C)C)c3nc4ccc(CC)cc4s3)cc2)CC1 | – | inconclusive [activator, full curve]
37 | O=C(Nc1ccccc1N1CCCCC1)c1ccc(-c2ccc(Cl)cc2)o1 | – | inconclusive [activator, single point]
38 | COCCOC(=O)c1c(C)nc(SCC(=O)Nc2ccc(OC)cc2)c(C#N)c1-c1ccco1 | inactive: 1.3% | –
39 | CCCCC1CCC(c2nc(-c3ccccn3)no2)CC1 (stereo not given) | inactive: 18.7% | –
40 | COc1ccc(C)cc1NC(=O)NC(C)c1ccncc1 (stereo not given) | inactive: 11% | –
41 | O=C(Nc1ccc2nc3ccccc3nc2c1)c1ccccc1 | – | inconclusive [activator, full curve, poor fit]
42 | COc1ccc(OCCOc2ccccc2[N+](=O)[O-])cc1 | – | inconclusive [activator, full curve]
43 | Cc1ccc(C(=O)Nc2nc3c(s2)CCCC3)o1 | – | inconclusive [activator, full curve, poor fit]
44 | CCC(C)c1ccc(NC(=S)NCc2cccnc2)cc1 (stereo not given) | – | inconclusive [activator, single point]
45 | Cc1nc2cc(NC(=O)N3c4ccccc4CC3C)ccc2o1 (stereo not given) | – | inconclusive [activator, partial curve, poor fit]
46 | CN(C)S(=O)(=O)c1cc(C(=O)Nc2ccccc2C(=O)NC2CC2)ccc1Cl | – | inconclusive [activator, full curve, poor fit]
47 | Cc1ccnc(NC(=O)c2sc3cc(Cl)ccc3c2Cl)c1 | – | inconclusive [activator, partial curve, poor fit]
48 | CCCN(CC1CC1)S(=O)(=O)c1ccc(S(N)(=O)=O)cc1 | inactive: -2.59% | –

Row | Compound | activity change, positive = activation | Potency
49 | CCOC(=O)c1c(NC(=O)C(=O)N/N=C/c2ccccc2O)sc2c1CCCCC2 | – | inconclusive [activator, full curve, poor fit]
50 | CCOC(=O)c1sc2nc3n(c(=O)c2c1C)CCCCC3 | – | inconclusive [activator, full curve, poor fit]
51 | CCN(c1ccccc1)S(=O)(=O)c1ccc(C(=O)N(CCCN(C)C)c2nc3c(C)cccc3s2)cc1 | – | inconclusive [activator, full curve, poor fit]
52 | CCN(CC)Cc1c(O)ccc2c1O/C(=C\C=C\c1ccccc1)C2=O | inactive: 5.18% | –
53 | O=C(CNC(=O)c1cccc(OC(F)F)c1)OCn1nnc2ccccc2c1=O | – | inconclusive [activator, partial curve, poor fit]
54 | Cc1c(NC(=S)NC(=O)C(C)(C)C)cccc1[N+](=O)[O-] | – | inconclusive [activator, full curve, poor fit]
55 | COc1ccc(CN2CC[C@@H](N3CCOCC3)[C@H](O)C2)cc1F | inactive: -3.87% | –
56 | O=C(O)CCC(=O)c1cccc2ccccc12 | inactive: 0.669% | –
57 | Cc1[nH]n(-c2ccccc2)c(=O)c1/C=N/NC(=O)COc1ccccc1[N+](=O)[O-] | – | inconclusive [activator, partial curve, poor fit]
58 | O=C(Nc1nc2ccccc2[nH]1)c1cccc(Br)c1 | – | inconclusive [activator, full curve, poor fit]
59 | O=C(c1cc(-c2ccc(F)cc2)on1)N1CCCCCC1 | – | inconclusive [activator, partial curve, poor fit]
60 | CSc1ncccc1C(=O)OCc1ccccc1F | – | inconclusive [activator, single point]
61 | O=C(c1ccccc1)c1cc2ccccc2o1 | – | inconclusive [activator, full curve, poor fit]
62 | CCOc1cc(CNc2ncc(-c3ccc(OC)cc3)n2C)ccc1O | inactive: 3.27% | –
63 | COc1ccc(CNC(=S)Nc2ccccc2F)cc1 | – | inconclusive [activator, partial curve, poor fit]
64 | Cc1ccccc1OC(C)c1nc(-c2ccccc2)no1 (stereo not given) | – | inconclusive [activator, partial curve, poor fit]
65 | [O-]/[N+](=C\c1ccccc1)c1ccc(Br)cc1 | – | inconclusive [activator, full curve, poor fit]
66 | CCOc1ccc(/C=C/C(=O)Oc2ccccc2)cc1 | – | inconclusive [activator, partial curve, poor fit]
67 | CC(C)CN(CC(C)C)C(=S)Nc1ccc(Cl)cc1 | inactive: -0.459% | –
68 | COc1ccc(C(=O)O/N=C(\N)c2ccccc2Cl)cc1OC | – | inconclusive [activator, single point]
69 | O=C(NCc1cccnc1)C1CCN(C(=O)c2ccc(Cl)cc2Cl)CC1 | inactive: 10.7% | –
70 | O=C(O)c1sccc1S(=O)(=O)N1CCN(c2ccc(C(F)(F)F)cn2)CC1 | inactive: -1.87% | –
